Source: PMC3989272
These are yes or no findings as the source states them, for the method shown. In cells and extracts the contact can be indirect. Some binding calls cover weakened binding; strength is not graded here. For some assays here: Where a sequence is shown, tags or fusion partners need not be part of it.

The chains behind the UniProt entries cited, without tags or fusion partners.
UniProt P29476: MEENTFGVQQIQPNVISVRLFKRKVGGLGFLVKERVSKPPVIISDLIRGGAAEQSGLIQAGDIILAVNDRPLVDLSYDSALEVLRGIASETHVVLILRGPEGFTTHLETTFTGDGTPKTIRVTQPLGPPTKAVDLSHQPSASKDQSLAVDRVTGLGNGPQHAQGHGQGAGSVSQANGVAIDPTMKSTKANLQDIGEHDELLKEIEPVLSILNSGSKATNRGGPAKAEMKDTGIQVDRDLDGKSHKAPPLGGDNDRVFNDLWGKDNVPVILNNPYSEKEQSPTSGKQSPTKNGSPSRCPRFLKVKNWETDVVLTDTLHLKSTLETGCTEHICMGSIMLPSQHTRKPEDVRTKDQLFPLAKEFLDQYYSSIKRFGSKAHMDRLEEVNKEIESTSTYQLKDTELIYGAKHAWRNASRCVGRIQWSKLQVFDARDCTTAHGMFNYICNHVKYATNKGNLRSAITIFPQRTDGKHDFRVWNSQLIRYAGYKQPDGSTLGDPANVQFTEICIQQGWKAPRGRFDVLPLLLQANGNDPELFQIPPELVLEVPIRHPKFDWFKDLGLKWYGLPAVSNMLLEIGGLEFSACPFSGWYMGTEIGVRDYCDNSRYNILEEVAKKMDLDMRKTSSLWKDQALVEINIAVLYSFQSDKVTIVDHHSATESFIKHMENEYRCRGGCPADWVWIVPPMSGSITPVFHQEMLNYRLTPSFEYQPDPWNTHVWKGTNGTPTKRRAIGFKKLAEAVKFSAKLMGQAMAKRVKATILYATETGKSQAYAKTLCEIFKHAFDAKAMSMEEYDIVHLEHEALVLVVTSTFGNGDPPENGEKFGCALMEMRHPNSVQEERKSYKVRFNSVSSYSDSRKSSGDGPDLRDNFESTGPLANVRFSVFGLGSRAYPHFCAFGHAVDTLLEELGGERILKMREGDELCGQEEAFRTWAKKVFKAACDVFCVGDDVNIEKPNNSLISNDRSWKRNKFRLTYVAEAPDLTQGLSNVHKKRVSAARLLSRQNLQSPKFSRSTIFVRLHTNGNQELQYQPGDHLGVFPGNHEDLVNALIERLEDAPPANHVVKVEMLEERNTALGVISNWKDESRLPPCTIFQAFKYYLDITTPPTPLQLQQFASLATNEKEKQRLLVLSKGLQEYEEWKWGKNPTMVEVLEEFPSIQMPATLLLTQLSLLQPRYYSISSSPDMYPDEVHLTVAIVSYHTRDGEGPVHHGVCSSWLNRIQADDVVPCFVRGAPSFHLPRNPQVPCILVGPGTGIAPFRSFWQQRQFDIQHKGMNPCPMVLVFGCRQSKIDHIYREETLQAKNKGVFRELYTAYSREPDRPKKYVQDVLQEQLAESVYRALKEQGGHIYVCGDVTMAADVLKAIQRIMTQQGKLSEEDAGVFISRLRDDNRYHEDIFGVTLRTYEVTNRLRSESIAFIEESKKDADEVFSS

Experiments:
[1] = target: Myc-tagged wild-type rat nNOS (rat) (UniProt P29476); test: co-IP; HEK293T cells cotransfected with Myc-nNOS and GFP-PKD1 forms, untreated or treated with 200 nM PDBu for 15 min; RIPA lysates, immunoprecipitation with anti-Myc antibody 4 h at 4°C, immunoblot with anti-GFP and anti-Myc
[2] = target: Myc-tagged wild-type rat nNOS (rat) (UniProt P29476); test: co-IP; transient transfection of HEK293T cells with PKD2 and nNOS, coimmunoprecipitation analysis (Figure S1)

| binding [1] | binding [2] | Binder |
| --- | --- | --- |
| binds |  | GFP-PKD1 lacking its PDZ-ligand (domain or fragment, UniProt Q62101 1-915) MSVPPLLRPPSPLLPAAAAVAAAAAALVPGSGPAPFPAPGAAPAGGISFHLQIGLSREPVLLLQDSSGDYSLAHVREMACSIVDQKFPECGFYGLYDKILLFRHDPASDNILQLVKIASDIQEGDLIEVVLSASATFEDFQIRPHALFVHSYRAPAFCDHCGEMLWGLVRQGLKCEGCGLNYHKRCAFKIPNNCSGVRRRRLSNVSLTGLGTVRTASAEFSTSVPDEPLLSPVSPGFEQKSPSESFIGREKRSNSQSYIGRPIQLDKLLMSKVKVPHTFVIHSYTRPTVCQFCKKLLKGLFRQGLQCKDCRFNCHKRCAPKVPNNCLGEVTINGELLSPGAESDVVMEEGSDDNDSERNSGLMDDMDEAMVQDTEMALAEGQSGGAEMQDPDADQEDSNRTISPSTSNNIPLMRVVQSVKHTKRRSSTVMKEGWMVHYTSKDTLRKRHYWRLDSKCITLFQNDTGSRYYKEIPLSEILCLEPAKPSALTPVGATPHCFEITTANVVYYVGENVVNPSSSPPNNSVLPSGIGPDVARMWEVAIQHALMPVIPKGSSVGSGSNSHKDISVSISVSNCQIQENVDISTVYQIFPDEVLGSGQFGIVYGGKHRKTGRDVAIKIIDKLRFPTKQESQLRNEVAILQNLHHPGVVNLECMFETPERVFVVMEKLHGDMLEMILSSEKGRLPEHITKFLITQILVALRHLHFKNIVHCDLKPENVLLASADPFPQVKLCDFGFARIIGEKSFRRSVVGTPAYLAPEVLRNKGYNRSLDMWSVGVIIYVSLSGTFPFNEDEDIHDQIQNAAFMYPPNPWKEISHEAIDLINNLLQVKMRKRYSVDKTLSHPWLQDYQTWLDLRELECRIGERYITHESDDSRWEQYAGEQGLQYPAHLISLSASHSDSPEAEEREMKALSERV |
| binds |  | GFP fused to PKD1 wild-type (enzyme, UniProt Q62101 1-918) MSVPPLLRPPSPLLPAAAAVAAAAAALVPGSGPAPFPAPGAAPAGGISFHLQIGLSREPVLLLQDSSGDYSLAHVREMACSIVDQKFPECGFYGLYDKILLFRHDPASDNILQLVKIASDIQEGDLIEVVLSASATFEDFQIRPHALFVHSYRAPAFCDHCGEMLWGLVRQGLKCEGCGLNYHKRCAFKIPNNCSGVRRRRLSNVSLTGLGTVRTASAEFSTSVPDEPLLSPVSPGFEQKSPSESFIGREKRSNSQSYIGRPIQLDKLLMSKVKVPHTFVIHSYTRPTVCQFCKKLLKGLFRQGLQCKDCRFNCHKRCAPKVPNNCLGEVTINGELLSPGAESDVVMEEGSDDNDSERNSGLMDDMDEAMVQDTEMALAEGQSGGAEMQDPDADQEDSNRTISPSTSNNIPLMRVVQSVKHTKRRSSTVMKEGWMVHYTSKDTLRKRHYWRLDSKCITLFQNDTGSRYYKEIPLSEILCLEPAKPSALTPVGATPHCFEITTANVVYYVGENVVNPSSSPPNNSVLPSGIGPDVARMWEVAIQHALMPVIPKGSSVGSGSNSHKDISVSISVSNCQIQENVDISTVYQIFPDEVLGSGQFGIVYGGKHRKTGRDVAIKIIDKLRFPTKQESQLRNEVAILQNLHHPGVVNLECMFETPERVFVVMEKLHGDMLEMILSSEKGRLPEHITKFLITQILVALRHLHFKNIVHCDLKPENVLLASADPFPQVKLCDFGFARIIGEKSFRRSVVGTPAYLAPEVLRNKGYNRSLDMWSVGVIIYVSLSGTFPFNEDEDIHDQIQNAAFMYPPNPWKEISHEAIDLINNLLQVKMRKRYSVDKTLSHPWLQDYQTWLDLRELECRIGERYITHESDDSRWEQYAGEQGLQYPAHLISLSASHSDSPEAEEREMKALSERVSIL |
| binds |  | GFP-PKD1-Ser916Glu (enzyme, UniProt Q62101 1-918) MSVPPLLRPPSPLLPAAAAVAAAAAALVPGSGPAPFPAPGAAPAGGISFHLQIGLSREPVLLLQDSSGDYSLAHVREMACSIVDQKFPECGFYGLYDKILLFRHDPASDNILQLVKIASDIQEGDLIEVVLSASATFEDFQIRPHALFVHSYRAPAFCDHCGEMLWGLVRQGLKCEGCGLNYHKRCAFKIPNNCSGVRRRRLSNVSLTGLGTVRTASAEFSTSVPDEPLLSPVSPGFEQKSPSESFIGREKRSNSQSYIGRPIQLDKLLMSKVKVPHTFVIHSYTRPTVCQFCKKLLKGLFRQGLQCKDCRFNCHKRCAPKVPNNCLGEVTINGELLSPGAESDVVMEEGSDDNDSERNSGLMDDMDEAMVQDTEMALAEGQSGGAEMQDPDADQEDSNRTISPSTSNNIPLMRVVQSVKHTKRRSSTVMKEGWMVHYTSKDTLRKRHYWRLDSKCITLFQNDTGSRYYKEIPLSEILCLEPAKPSALTPVGATPHCFEITTANVVYYVGENVVNPSSSPPNNSVLPSGIGPDVARMWEVAIQHALMPVIPKGSSVGSGSNSHKDISVSISVSNCQIQENVDISTVYQIFPDEVLGSGQFGIVYGGKHRKTGRDVAIKIIDKLRFPTKQESQLRNEVAILQNLHHPGVVNLECMFETPERVFVVMEKLHGDMLEMILSSEKGRLPEHITKFLITQILVALRHLHFKNIVHCDLKPENVLLASADPFPQVKLCDFGFARIIGEKSFRRSVVGTPAYLAPEVLRNKGYNRSLDMWSVGVIIYVSLSGTFPFNEDEDIHDQIQNAAFMYPPNPWKEISHEAIDLINNLLQVKMRKRYSVDKTLSHPWLQDYQTWLDLRELECRIGERYITHESDDSRWEQYAGEQGLQYPAHLISLSASHSDSPEAEEREMKALSERVEIL |
| binds |  | GFP-PKD1-Ser916Ala (enzyme, UniProt Q62101 1-918) MSVPPLLRPPSPLLPAAAAVAAAAAALVPGSGPAPFPAPGAAPAGGISFHLQIGLSREPVLLLQDSSGDYSLAHVREMACSIVDQKFPECGFYGLYDKILLFRHDPASDNILQLVKIASDIQEGDLIEVVLSASATFEDFQIRPHALFVHSYRAPAFCDHCGEMLWGLVRQGLKCEGCGLNYHKRCAFKIPNNCSGVRRRRLSNVSLTGLGTVRTASAEFSTSVPDEPLLSPVSPGFEQKSPSESFIGREKRSNSQSYIGRPIQLDKLLMSKVKVPHTFVIHSYTRPTVCQFCKKLLKGLFRQGLQCKDCRFNCHKRCAPKVPNNCLGEVTINGELLSPGAESDVVMEEGSDDNDSERNSGLMDDMDEAMVQDTEMALAEGQSGGAEMQDPDADQEDSNRTISPSTSNNIPLMRVVQSVKHTKRRSSTVMKEGWMVHYTSKDTLRKRHYWRLDSKCITLFQNDTGSRYYKEIPLSEILCLEPAKPSALTPVGATPHCFEITTANVVYYVGENVVNPSSSPPNNSVLPSGIGPDVARMWEVAIQHALMPVIPKGSSVGSGSNSHKDISVSISVSNCQIQENVDISTVYQIFPDEVLGSGQFGIVYGGKHRKTGRDVAIKIIDKLRFPTKQESQLRNEVAILQNLHHPGVVNLECMFETPERVFVVMEKLHGDMLEMILSSEKGRLPEHITKFLITQILVALRHLHFKNIVHCDLKPENVLLASADPFPQVKLCDFGFARIIGEKSFRRSVVGTPAYLAPEVLRNKGYNRSLDMWSVGVIIYVSLSGTFPFNEDEDIHDQIQNAAFMYPPNPWKEISHEAIDLINNLLQVKMRKRYSVDKTLSHPWLQDYQTWLDLRELECRIGERYITHESDDSRWEQYAGEQGLQYPAHLISLSASHSDSPEAEEREMKALSERVAIL |
|  | binds weakly | full-length PKD2 (enzyme, UniProt Q9BZL6 1-878) MATAPSYPAGLPGSPGPGSPPPPGGLELQSPPPLLPQIPAPGSGVSFHIQIGLTREFVLLPAASELAHVKQLACSIVDQKFPECGFYGLYDKILLFKHDPTSANLLQLVRSSGDIQEGDLVEVVLSASATFEDFQIRPHALTVHSYRAPAFCDHCGEMLFGLVRQGLKCDGCGLNYHKRCAFSIPNNCSGARKRRLSSTSLASGHSVRLGTSESLPCTAEELSRSTTELLPRRPPSSSSSSSASSYTGRPIELDKMLLSKVKVPHTFLIHSYTRPTVCQACKKLLKGLFRQGLQCKDCKFNCHKRCATRVPNDCLGEALINGDVPMEEATDFSEADKSALMDESEDSGVIPGSHSENALHASEEEEGEGGKAQSSLGYIPLMRVVQSVRHTTRKSSTTLREGWVVHYSNKDTLRKRHYWRLDCKCITLFQNNTTNRYYKEIPLSEILTVESAQNFSLVPPGTNPHCFEIVTANATYFVGEMPGGTPGGPSGQGAEAARGWETAIRQALMPVILQDAPSAPGHAPHRQASLSISVSNSQIQENVDIATVYQIFPDEVLGSGQFGVVYGGKHRKTGRDVAVKVIDKLRFPTKQESQLRNEVAILQSLRHPGIVNLECMFETPEKVFVVMEKLHGDMLEMILSSEKGRLPERLTKFLITQILVALRHLHFKNIVHCDLKPENVLLASADPFPQVKLCDFGFARIIGEKSFRRSVVGTPAYLAPEVLLNQGYNRSLDMWSVGVIMYVSLSGTFPFNEDEDINDQIQNAAFMYPASPWSHISAGAIDLINNLLQVKMRKRYSVDKSLSHPWLQEYQTWLDLRELEGKMGERYITHESDDARWEQFAAEHPLPGSGLPTDRDLGGACPPQDHDMQGLAERISVL |
